Test results reported in article PMC4336329 (PLoS ONE, 2015).
About 2,200 (0.71%) of roughly 310,000 compounds showed an effect of 50% or more. The effect is printed as a negative number. This is one part of the list.

target: human ether-à-go-go-related gene (hERG) potassium channel (human, UniProt Q12809); assay: primary screen, population patch clamp on CHO cells stably expressing hERG
Sequence (Q12809 whole entry, looked up): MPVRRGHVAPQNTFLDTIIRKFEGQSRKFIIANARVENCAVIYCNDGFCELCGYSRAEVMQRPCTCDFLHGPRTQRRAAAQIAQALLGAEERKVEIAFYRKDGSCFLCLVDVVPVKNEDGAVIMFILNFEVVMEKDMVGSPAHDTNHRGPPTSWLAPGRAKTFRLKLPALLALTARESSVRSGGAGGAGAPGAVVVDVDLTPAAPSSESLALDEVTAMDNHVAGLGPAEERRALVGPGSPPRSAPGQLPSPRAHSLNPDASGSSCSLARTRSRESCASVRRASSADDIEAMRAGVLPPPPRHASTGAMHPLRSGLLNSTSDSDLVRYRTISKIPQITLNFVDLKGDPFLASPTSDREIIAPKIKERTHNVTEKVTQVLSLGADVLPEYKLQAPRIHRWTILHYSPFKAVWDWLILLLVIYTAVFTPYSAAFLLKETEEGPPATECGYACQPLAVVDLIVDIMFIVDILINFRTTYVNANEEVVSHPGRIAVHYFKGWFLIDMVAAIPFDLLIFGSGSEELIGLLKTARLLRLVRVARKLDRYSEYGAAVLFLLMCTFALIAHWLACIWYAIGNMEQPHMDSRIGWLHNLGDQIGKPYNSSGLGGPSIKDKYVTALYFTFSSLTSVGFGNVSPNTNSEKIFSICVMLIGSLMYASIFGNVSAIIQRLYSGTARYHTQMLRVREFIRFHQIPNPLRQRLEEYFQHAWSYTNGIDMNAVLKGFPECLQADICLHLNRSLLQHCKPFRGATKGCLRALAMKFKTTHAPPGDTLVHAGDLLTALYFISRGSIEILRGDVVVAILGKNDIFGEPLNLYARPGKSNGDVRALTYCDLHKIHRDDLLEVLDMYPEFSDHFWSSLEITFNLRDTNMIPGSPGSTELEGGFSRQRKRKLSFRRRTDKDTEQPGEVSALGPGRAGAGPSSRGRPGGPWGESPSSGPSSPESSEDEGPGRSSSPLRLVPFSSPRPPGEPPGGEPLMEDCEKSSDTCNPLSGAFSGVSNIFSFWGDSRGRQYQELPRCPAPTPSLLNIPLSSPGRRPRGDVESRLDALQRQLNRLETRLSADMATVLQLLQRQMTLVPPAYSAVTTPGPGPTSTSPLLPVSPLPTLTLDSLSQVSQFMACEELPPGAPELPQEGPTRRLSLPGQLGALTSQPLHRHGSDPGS

Row | Structure (SMILES) | hERG current change (%, negative = inhibition) at 1uM
1 | O=S(=O)(NCCn1cccc1)c1ccc2ccccc2c1 | 12.9%
2 | Cc1ccccc1NC(=O)Cc1nc(COC(=O)c2cccc([N+](=O)[O-])c2)cs1 | 9.54%
3 | Cc1cc(C)n(-c2nc(SCC(=O)O)c3c4c(sc3n2)CCCC4)n1 | 10.6%
4 | COCCn1c(Cc2cccn2C)nnc1SCC(=O)Nc1nccs1 | 3.63%
5 | CCOC(=O)Cn1cc(C(=O)C2CC2)c2ccccc21 | -4.21%
6 | COc1cccc(COC(=O)C2CCN(S(=O)(=O)c3ccc(C)cc3)CC2)c1OC | 13.6%
7 | O=C(CCl)N1CCN2C(=O)c3ccccc3C12c1ccc(Cl)cc1 (centres unmarked) | 9.81%
8 | COc1ccc(C(C(=O)NCC2CCCO2)N(C(=O)CNC(=O)c2cccs2)c2ccc(C)cc2)cc1OC (centres unmarked) | 0.634%
9 | O=C(/C=C/Nc1ccc(F)c(Cl)c1)c1ccco1 | 7%
10 | CC1(C)Cc2c(sc(NC(=O)c3ccc(C(=O)c4ccccc4)cc3)c2C(N)=O)C(C)(C)N1 | 8.87%
11 | COC(=O)CSc1n[nH]c(=S)s1 | 6.49%
12 | CC1(C)CC(NC(=O)Cc2ccc(Cl)cc2)CC(C)(C)N1 | 16.7%
13 | CC(=O)c1ccc(S(=O)(=O)N2CCC(c3nc4ccccc4[nH]3)CC2)cc1 | -30.2%
14 | Cc1ccc(S(=O)(=O)C(C#N)c2nc3ccccc3nc2N2CCCC2)cc1C (centres unmarked) | 4.09%
15 | O=C(Nc1ccccc1)Nc1ccc(C(=O)N2CCCC2)cc1 | 1.79%
16 | Cc1c(/C=N/O)c2ccccc2n1C | 6.72%
17 | COCCNCCCCSc1ccc(Cl)cc1 | -6.69%
18 | Nc1cc(C(=O)OCC(=O)NCCCc2ccccc2)ccc1Cl | 9.94%
19 | Cc1cccc(C(=O)N[C@H](C(=O)NCCc2ccc(Cl)cc2)C(C)C)c1 | 11.6%

Row | Structure (SMILES) | hERG current change (%, negative = inhibition) at 1uM
20 | COc1ccc(C(=O)N[C@H](C(=O)OCC(=O)NC(=O)c2cccn2C)C(C)C)cc1 | 4.44%
21 | C=C(C)CNC(=S)N=Nc1c(O)[nH]c2ccc([N+](=O)[O-])cc12 | -0.518%
22 | COc1cc(/C=N/Nc2nc(Nc3ccccc3)nc(N3CCCCC3)n2)ccc1OCC(=O)O | 9.39%
23 | Cn1nccc1NC(=O)Nc1ccccc1 | 15.2%
24 | Cc1cc(Cn2nnnc2-c2ccncc2)cc(C)c1O | 8.26%
25 | COc1ccc(-c2csc(/C(C#N)=C\c3ccc(OC)c([N+](=O)[O-])c3)n2)cc1 | -1.51%
26 | COc1cccc(NC(=O)CCCn2c(=S)[nH]c3ccccc3c2=O)c1 | 11.1%
27 | COc1cc(C=O)ccc1OCc1ccncc1 | 15.6%
28 | O=C(CN1C(=O)c2cccc3cccc1c23)Nc1ccc2c(c1)OCO2 | 17.3%
29 | CCOC(=O)c1c(C)[nH]c(C(=O)CSc2nnnn2-c2ccc(C)cc2)c1C | 0.0761%
30 | COc1ccc(C(=O)NC(Cn2ccnc2)C(C)(C)C)cc1OC1CCN(C(C)C)CC1 (centres unmarked) | -12.8%
31 | COc1ccc(NC(=O)CCNC(=O)c2ccco2)cc1OC | 13.7%
32 | O=C(Nc1ccc2c(c1)oc1ccccc12)C1CC1 | 17.6%
33 | CCCOc1ccccc1OCC(=O)Nc1ccc(S(=O)(=O)N2CCCC2)cc1 | 6.02%
34 | CC(=O)N1CCN(C(=O)c2cccc(S(=O)(=O)Nc3ccc(C)cc3)c2)CC1 | 20.9%
35 | CSc1nc2c(C)c(C)c(C)c(C)c2[nH]1 | 6.55%
36 | Cn1c(=O)c2cn(-c3ccc4c(c3)OCCO4)cc2n(C)c1=O | 13.7%
37 | CCOC(=O)C1=C(C)NC(=O)C(C(N)=O)C12CCCC2 (centres unmarked) | 19.6%
38 | CNC(=O)N(O)C1N(/N=C/c2cc(Br)ccc2O)C(=S)SC1(C)C (centres unmarked) | 8.79%

Row | Structure (SMILES) | hERG current change (%, negative = inhibition) at 1uM
39 | N#CCC(=O)Nc1ccc(C(=O)OCC(=O)NNC(=O)c2ccc(Cl)cc2)cc1 | 8.22%
40 | COc1ccc(CNC(=O)Cc2nn(C)c(=O)c3ccccc23)cc1 | -0.0936%
41 | Cc1cc(C)c(S(=O)(=O)N2CC=C(c3ccccc3)CC2)c(C)c1 | 10.5%
42 | COc1ccc(C(=O)N2CCN(Cc3nc(CC4CC4)no3)CC2)cc1 | 1.81%
43 | CNC(=O)C1CC(=O)N(CCc2ccc(OC)c(OC)c2)C(=Nc2ccc(F)cc2)S1 (centres unmarked) | -3.69%
44 | O=C(/C=C/c1ccc(OC(F)F)cc1)Nc1cccc(S(=O)(=O)NC2=NCCCCC2)c1 | -2.86%
45 | Cc1cc(C)cc(NC(=O)CN2CCC(C(=O)c3ccccc3)CC2)c1 | 5.83%
46 | C=CCn1c(CCc2ccccc2)nnc1SCC(=O)OC | 9.59%
47 | COc1ccc(-c2[nH]c(-c3ccc(F)cc3)nc2SCC(=O)NC2CCCC2)cc1 | 8.28%
48 | CCOC(=O)N1CCN(C(=O)COc2ccccc2OC)CC1 | 12.9%
49 | CC(=O)C1=C(C)NC(SCC(=O)c2ccccc2)=C(C#N)C1c1ccco1 (centres unmarked) | 9.18%
50 | Cc1cccc(C)c1N1C(=O)C2ON(c3ccccc3)C(c3ccncc3)C2C1=O (centres unmarked) | -1.05%
51 | CCOc1ccc(NC(=O)c2ccc(CNc3c(NC4CCCCC4)c(=O)c3=O)cc2)cc1 | 9.01%
52 | Cc1ccc(S(=O)(=O)Nc2ccccc2C(O)c2ccccc2)cc1 (centres unmarked) | 15%
53 | CCC(=O)c1ccc(N2CCN(C(=O)c3ccccc3F)CC2)c(F)c1 | 4.36%
54 | COc1ccc(NC(=O)CCS(=O)(=O)c2ccc3c(c2)NC(=O)C(C)S3)cc1OC (centres unmarked) | 18.7%
55 | Cc1ccc(-c2csc3nc[nH]c(=O)c23)c(C)c1 | 2.26%
56 | O=C(O)c1ccc(-n2cc(C(=O)c3ccccc3O)cn2)cc1 | 12.7%
